PubChem BioAssay AID493208 (National Center for Advancing Translational Sciences (NCATS), 2011)
The whole screen tested about 44,000 compounds, of which about 340 (0.77%) were called active. Roughly 5% stayed inconclusive and do not appear here. Calls follow the shape of the dose curve; as a rule, active = well fitted inhibition curve with a large enough effect; inconclusive = small, poorly fitted or top-dose-only effect; inactive = flat fitted curve, though single readings scatter. This is one part of the list.

Assay: Acumen qHTS Assay for Inhibitors of the mTORC1 Signaling Pathway in MEF (Tsc2-/-, p53-/-) Cells: Sytravon;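 also: plate controls were DMSO for no effect and rapamycin for full effect; nearly all actives have a fitted effect of over 50% in size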
Conditions: phospho-rpS6 immunofluorescence/PI, 24 h; series mostly up to 38.3 µM; activity change, negative = inhibition: at the top concentration
Method in brief: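 Read-out: phospho-S6 Alexa-488 intensity over PI intensity per well, scored as % active cells using thresholds from rapamycin (7.5 nM) and DMSO controls. Tsc2-/-, p53-/- MEFs exposed to compound for 24 h; PI cell count recorded as viability.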

Structure (SMILES) | activity change, negative = inhibition
Cc1ccccc1NC(=O)CSc1ccc(-c2cccs2)nn1 | inactive: -4.48%
COc1ccc(NC(=O)Nc2nnc(N(CC(C)C)CC(C)C)s2)c(OC)c1 | inactive: 1.42%
CCN(C(=O)c1cc2c(s1)-c1ccccc1OC2)c1cccc(C(F)(F)F)c1 | inactive: -8.68%
COc1ccc(NC(=O)c2cc(C3CC3)nc3c2c(C)nn3-c2ccccc2)cc1OC | inactive: 0.438%
O=C(CSc1nccn1Cc1ccccc1)Nc1ccc2c(c1)OCCO2 | inactive: -3.83%
Cc1ccc(CNC(=O)Cn2cccc2C(=O)c2ccccc2C)cc1 | inactive: -4.35%
Cc1ccc2nc(COc3cccc(NC(=O)COc4ccc(F)cc4)c3)cc(=O)n2c1 | inactive: -12.6%
Cc1ccc(NC(=O)CCS(=O)(=O)c2ccc3c(c2)oc(=O)n3C)c(Br)c1 | inactive: -1.37%
Cc1cc(C)cc(-n2c(SCC(=O)NC3CCCCC3)nc3c([nH]c4ccccc43)c2=O)c1 | inactive: 0.669%
COc1ccc(NC(=O)c2cc3c(C)nn(-c4ccccc4)c3s2)c(OC)c1 | inactive: -7.46%
Cc1c(Cl)cccc1Nc1nn2c(=O)c3ccc(C(=O)N(C)Cc4ccccc4)cc3nc2s1 | inactive: 0.0523%
O=c1[nH]c(SCc2c(F)cccc2Cl)nc2c1CCCC2 | inactive: -24.3%
COc1ccc(-c2nc(CSCC(=O)N3CCN(c4ccccc4)CC3)c(C)o2)cc1 | inactive: -8.2%
CC(=O)c1cccc(NS(=O)(=O)c2cccc(S(=O)(=O)c3ccc(Br)cc3)c2)c1 | inactive: 3.24%
COCCNC(=O)c1[nH]c2cc(C)ccc2c1Sc1ccc(Cl)cc1 | inactive: 0.305%
O=C(COc1ccccc1)OCc1cc(=O)n2nc(-c3cccs3)sc2n1 | inactive: 5.78%
Cc1c(Cl)cccc1NC(=O)c1cc2nc(-c3ccc4c(c3)OCO4)cc(C(F)(F)F)n2n1 | inactive: -4.95%
Cc1ccccc1NC(=O)c1ccc(N(Cc2ccccc2)S(C)(=O)=O)cc1 | inactive: 11.8%
COc1ccc(CNC(=O)c2cnc3ccc(C)cn3c2=O)cc1 | inactive: 0.605%
CCc1nn(CC(=O)NC(C)CC)c(=O)c2cc3occc3n12 (stereo not drawn) | inactive: -6.42%
CC(C)(C)OC(=O)N1CCC(c2c(C(=O)Nc3ccc4c(c3)OCO4)cnn2-c2ccccc2)CC1 | inactive: -4.52%
O=C(NCc1ccc2c(c1)CCN2C(=O)c1ccncc1)c1ccccc1F | inactive: -3.8%
COc1cccc(OCCn2c(-c3ccc(Br)cc3)nc3ccccc3c2=O)c1 | inactive: -19.5%
COC(=O)c1ccccc1NC(=O)CCS(=O)(=O)c1nc(-c2ccc3c(c2)OCO3)cc(C(F)(F)F)n1 | inactive: -14.6%
COC(=O)c1c(-c2cccs2)csc1NC(=O)c1ccc(C(C)C)cc1 | inactive: 0.939%

Structure (SMILES) | activity change, negative = inhibition
COc1ccccc1CNc1ncnc2c1nnn2C | inactive: -1.15%
CCOCCCn1c(=N)c(S(=O)(=O)c2ccc(Cl)cc2)cc2c(=O)n3cccc(C)c3nc21 | inactive: 6.82%
O=C(NCc1ccc(F)cc1)c1ccc2oc(=O)n(Cc3ccccc3)c2c1 | inactive: -23%
COc1ccccc1NC(=O)C(=O)NCC(c1cccnc1)N1CCc2ccccc2C1 (stereo not drawn) | inactive: 10.5%
COc1cccc(CNC(=O)Cn2c(=O)oc3cc(S(=O)(=O)N4CCCCCC4)ccc32)c1 | inactive: 1.36%
COC(=O)c1ccc(NC(=O)CCc2c(C)nn(-c3ccc(N4CCCCC4)nn3)c2C)cc1 | inactive: -15.8%
CC(=O)Nc1nonc1-c1nnc(SCc2ccccc2)n1C | inactive: -0.889%
COc1ccc(-n2nc(C(=O)Nc3cc(C)ccn3)c3c4ccccc4n(C)c3c2=O)cc1Cl | inactive: 1.61%
CCOc1ccc(-c2cc(C(=O)NCCc3ccc(OC)c(OC)c3)[nH]n2)cc1 | inactive: -6.26%
CN1CC(=O)N(CC(=O)Nc2ccc(OC(F)(F)F)cc2)c2ccccc2C1=O | inactive: -1.66%
CCc1ccc(NC(=O)Cn2c(=O)c3cc(Cl)ccc3n3nncc23)cc1 | inactive: -4.04%
COC(=O)c1cccc(CN2C(=O)SC(Nc3ccc(C)cc3)C2=O)c1 (stereo not drawn) | inactive: -17.1%
Cc1ccccc1CNC(=O)C(=O)NCC(c1cccs1)S(=O)(=O)c1cccs1 (stereo not drawn) | inactive: -4.29%
C=Cc1ccc(Cn2c(SCC(=O)N3CCN(c4ccc(F)cc4)CC3)nc3ccccc32)cc1 | inactive: -5.72%
O=c1c2oc3ccccc3c2n(Cc2cccc(F)c2)c(=O)n1Cc1ccc2c(c1)OCO2 | inactive: -2.8%
Cc1cccc(NC(=O)/C(C#N)=C/c2ccc(C)o2)c1 | inactive: 4.91%
CCOC(=O)c1ccc(NC(=O)CCc2nc3cccnc3n2Cc2cccs2)cc1 | inactive: -15.2%
COc1cc(C2CC(=O)Nc3c2c(=O)n(C)c2ncnn32)cc(OC)c1OC (stereo not drawn) | inactive: -8.95%
CCC(=O)Nc1cccc(-c2nc3cc(C)ccc3o2)c1 | inactive: 0.891%
CC(=O)c1ccc(N2CCN(c3ccc4cc(S(=O)(=O)N5CCC(C)CC5)ccc4n3)CC2)cc1 | inactive: 7.15%
CSc1ccc(CCNC(=O)c2c(C)oc3ncn(C)c(=O)c23)cc1 | inactive: -11%
Cc1cccc(Cn2c(Cc3ccccc3)nc3ccccc32)c1 | inactive: 1.76%
O=C(CN1c2ccccc2S(=O)(=O)c2ccccc21)Nc1cccc(C(F)(F)F)c1 | inactive: 0%
CCOC(=O)c1cnc(N2CCN(c3ccc(OC)cc3)CC2)c2ccccc12 | inactive: 2.07%
CCOC(=O)c1c(S(=O)(=O)NCC(=O)N(C)Cc2ccccc2)c(C)n(C)c1C | inactive: 2.59%

Structure (SMILES) | activity change, negative = inhibition
CCN1CCN(c2ncnc3c2cnn3-c2cc(Cl)ccc2C)CC1 | inactive: 0.73%
CC1CCN(S(=O)(=O)c2csc(C(N)=O)c2)CC1 | inactive: -2.99%
COc1ccccc1N1CCN(c2ncnc3c2c(-c2ccccc2)cn3-c2cccc(C)c2)CC1 | inactive: 2.43%
Cc1ccc(CSc2nc3cccnc3n2Cc2ccc(C(=O)NC3CCCCC3)cc2)cc1 | inactive: -7.54%
CCCOc1ccc(C2c3c(oc4ccc(F)cc4c3=O)C(=O)N2CCc2ccc(OC)cc2)cc1 (stereo not drawn) | inactive: 0.488%
CC(=O)Nc1nonc1-c1nnc(SCC(=O)Nc2ccc(C)c(Cl)c2)n1C | inactive: -8.37%
CCOc1ccc2c(c1)c(=O)c(S(=O)(=O)c1ccc(C)cc1)cn2Cc1ccccc1Cl | inactive: -17.3%
Cc1ccc(CNC(=O)CN2C(=O)CC(c3ccc(C)c(C)c3)=Nc3ccccc32)cc1 | inactive: -14.1%
CCCCOC(=O)c1ccc(Nc2ncnc3c2cnn3-c2cccc(C)c2)cc1 | inactive: 8.23%
Cc1ccc(-c2nnc3c4ccccc4c(C)nn23)cc1NC(=O)c1cccc(Br)c1 | inactive: 3.95%
Clc1cccc(-n2cc(-c3ccccc3)c3c(NC4CCCC4)ncnc32)c1 | inactive: 9.7%
COc1ccccc1NC(=O)CSc1nc2c(oc3ccccc32)c(=O)n1Cc1ccco1 | inactive: -9.51%
O=C(NCc1cccc(Cl)c1)NCc1noc2ccccc12 | inactive: -6.37%
COc1cccc(N2CCN(c3ncnc4c3c(-c3ccccc3)cn4-c3ccc(F)cc3)CC2)c1 | inactive: 15.1%
CCCCN(CC)C(=O)CCCn1c(=O)c2cccn2c2ccccc21 | inactive: 11.5%
COc1ccc(CNC(=O)CCNS(=O)(=O)c2ccc3c(c2)CCCC(=O)N3)cc1 | inactive: -2.23%
Cc1ccc(Cn2c(CCNC(=O)C(C)C)nc3ccccc32)cc1 | inactive: -4.89%
Cc1ccc(Cl)cc1N(C)C(=O)C1CCCN(c2ncnc3onc(-c4ccc(F)cc4)c23)C1 (stereo not drawn) | inactive: -0.165%
O=C(Cn1nc(-c2ccc(Cl)cc2)ccc1=O)NCCc1ccccc1 | inactive: 13%
CCOC(=O)CCc1c(C)nc2c(c(C)nn2-c2ccc(C)cc2)c1C | inactive: -8.84%
O=C(C1CCC1)N1CCc2cc(S(=O)(=O)NCCc3ccccc3)ccc21 | inactive: -0.828%
CCOc1ccc(C(=O)c2cn(CC(=O)Nc3ccc(F)c(F)c3)c3cc4c(cc3c2=O)OCCO4)cc1 | inactive: -11.5%
CSc1ncc(Cl)c(C(=O)Nc2c(C(=O)c3ccc(C)c(F)c3)oc3ccccc23)n1 | inactive: -8.47%
COc1cccc(NC(=O)CCc2nc(-c3cccs3)no2)c1 | inactive: -2.62%
CCOc1ccc(C2C(=O)N(C3CCCCC3)CC(=O)N2CCC2=CCCCC2)cc1OC (stereo not drawn) | inactive: -23.8%

Structure (SMILES) | activity change, negative = inhibition
Cc1cccc(OC(=O)c2cc(-c3ccc4c(c3)OCCO4)on2)c1C | inactive: 3.43%
COc1cccc(CNC(=O)C(Cc2ccccc2)NS(=O)(=O)c2ccc3c(c2)oc(=O)n3C)c1 (stereo not drawn) | inactive: -7.17%
Cc1cc2[nH]c(=O)c(=O)[nH]c2cc1S(=O)(=O)Nc1ccc(OC(F)(F)F)cc1 | inactive: 1.46%
COc1ccc(-c2noc(CSc3nc(N)cc(=O)[nH]3)n2)cc1 | inactive: -1.55%
Cc1cccc(N2CCN(c3ccc(NC(=O)c4ccccc4)cc3C(=O)O)CC2C)c1 (stereo not drawn) | inactive: -0.614%
Cc1cccc(NC(=O)c2ccc3nc(CCc4ccccc4)oc3c2)c1C | inactive: -0.486%
Cc1ncc(CO)c2c1Oc1nc(-c3ccc(F)cc3)nc(SCc3ccc(F)cc3Cl)c1C2 | inactive: 3.79%
O=C(NCc1ccc(F)cc1)c1ccc2c(c1)nc1n2CCCCC1 | inactive: 2.74%
O=C(Nc1ccccc1)c1ccc2c(O)c(S(=O)(=O)c3ccc(Cl)cc3)c(=O)[nH]c2c1 | inactive: -5.74%
Cc1cc(Nc2cccc(Cl)c2)nc2ccc(NC(=O)c3cccc(N(C)C)c3)cc12 | inactive: -7.15%
Cc1cc(O)c2c(C)c(CC(=O)N3CCCCC3)c(=O)oc2c1 | inactive: -2.32%
CCCS(=O)(=O)N1CCC(N2CCN(Cc3ccc(F)cc3)C(=O)C2=O)CC1 | inactive: 0%
COc1ccc(-c2noc(-c3nnn(-c4ccc(C(C)C)cc4)c3C)n2)cc1OC | inactive: -9.14%
CCOC(=O)c1ccc(NC(=O)CN2Cc3ccccc3C2=O)cc1 | inactive: -1.24%
COc1ccccc1C(=O)Nc1onc2c1CCCC2 | inactive: -1.86%
CCOc1ccccc1C1C(C(=O)Nc2ccccc2)=C(C)Nc2c(C(=O)Nc3ccc(F)cc3)cnn21 (stereo not drawn) | inactive: 1.52%
CCn1cc(C(=O)N2CCN(c3ccc(OC)cc3)CC2)c2cc(OC)c(OC)cc2c1=O | inactive: 0.271%
O=S(=O)(c1ccc2nc(Nc3cccc(F)c3)ccc2c1)N1CCCC1 | inactive: 0.834%
Cc1ccc(NC(=O)Cn2cc(C(=O)c3ccco3)c3ccccc32)cc1 | inactive: -7.58%
CCOc1ccc(-c2cccc(NS(=O)(=O)c3ccccc3C(F)(F)F)c2)nn1 | inactive: 4.81%
Cc1ccccc1Cn1c2ccccc2c2cnn(CC(=O)N3CCC(C)CC3)c(=O)c21 | inactive: 0.342%
CCc1ccc(NC(=O)N2CCC(N3CCN(Cc4ccc(C)cc4)C(=O)C3=O)CC2)cc1 | inactive: -0.672%
COc1ccc(-c2cc3nccc(-c4cc(Cl)c(C)cc4O)n3n2)cc1 | inactive: -19.5%
